The campaign covered roughly 350,000 compounds. About 9,900 (2.8%) were called active. The shares of active, inactive and inconclusive entries below differ from those in the screen. The call rests on the fitted dose curve; in most records, active means well fitted activation curve with a large enough effect; inconclusive means small, poorly fitted or top-dose-only effect; inactive means no such curve, though single readings can be large or run the other way. Potencies of inconclusive entries are left out as doubtful fits.
Test: A quantitative high throughput screen for small molecules that induce DNA re-replication in MCF 10a normal breast cells. Further: nearly all actives have a fitted effect of over 50% in size. On activity, positive = re-replication: % of control where 0% means no effect.
Settings: MCF 10A DNA re-replication, Hoechst nuclear intensity, 48 h; activity, positive = re-replication: at 46.1 µM (top of the series)
Potency means the concentration at half of the fitted maximal effect; tags describe the fitted curve by direction and shape.

SMILES	Potency	activity, positive = re-replication
Cc1ccc(-c2csc(NC(=O)CSc3nc4ccccc4c(=O)n3CCCN(C)C)n2)cc1	inconclusive [activator, single point]	–
OC1(c2cccc(C(F)(F)F)c2)CCN(c2ncnc3c2[nH]c2ccccc23)CC1	inconclusive [activator, single point]	–
COc1cc(C(=O)NCc2ccc(S(N)(=O)=O)cc2)ccc1OCC(=O)Nc1cccc(C(F)(F)F)c1	inconclusive [activator, single point]	–
COc1ccc2nc(/C(C#N)=C\c3ccc(Oc4ccc([N+](=O)[O-])cn4)cc3)[nH]c2c1	inactive	–
CC(=O)c1ccc(NC(=O)CC23CC4CC(C2)CC(n2nnc(C)n2)(C4)C3)cc1	inconclusive [activator, partial curve, poor fit]	–
COc1ccccc1CNC(=O)COc1ccc(C)nc1[N+](=O)[O-]	inconclusive [activator, partial curve, poor fit]	–
COc1ccc(Cl)cc1NC(=O)CN(C)C(=O)c1cc(=O)c2ccccc2o1	inactive	–
N#C/C(=C/c1cn(-c2ccccc2)nc1-c1cccc(OCc2ccc(F)cc2)c1)C(=O)NCCCn1ccnc1	active: 10.3 µM	–
CC1Cc2ccccc2N1Cc1cc(=O)c(OCC(=O)NCCc2ccccc2)co1 (stereo not drawn)	inconclusive [activator, single point]	–
OCc1cn(-c2ccccc2)nc1-c1ccc(Br)cc1	inconclusive [activator, single point]	–
CCCCC(=O)Nc1nc2ccc3nc(C)sc3c2s1	inconclusive [activator, single point]	–
COc1ccc(/C=C/c2cc[n+](C(=O)Cc3ccccc3)cc2)cc1	inconclusive [activator, single point]	–
COc1cccc(C2=CC(c3cccs3)n3nnnc3N2)c1 (stereo not drawn)	active: 4.11 µM	–
COc1cc(CN2CCN(C(=O)c3cccc4ccccc34)CC2)cc(OC)c1O	inactive	–
O=C(CBr)N1CCc2ccccc2C(c2ccccc2)C1 (stereo not drawn)	inactive	–
O=C(Nc1ccccc1)Nc1nnc(SCc2ccc(Cl)cc2)s1	inconclusive [activator, partial curve]	–
O=S(=O)(c1ccc(Cl)s1)N1CCN(c2ncccn2)CC1	active: 18.4 µM	–
Cc1cc2ccccn2c1C(C[N+](=O)[O-])c1ccc(N(C)C)cc1 (stereo not drawn)	inactive	–
COc1ccc(C2=CC(c3ccc(F)cc3)n3nnnc3N2)cc1 (stereo not drawn)	active: 23.1 µM	–
O=C(Cc1c[nH]c2ccccc12)NCc1ccncc1	inactive	–
O=C(Nc1cccnc1)c1cccc(S(=O)(=O)N2CCCCC2)c1	inconclusive [activator, full curve, poor fit]	–
O=S1(=O)CCC(S(=O)(=O)N2CCCCCC2)C1 (stereo not drawn)	inconclusive [activator, single point]	–
CSc1ccccc1C(=O)N1CCC(CCC(=O)NC2CC2)CC1	inconclusive [activator, single point]	–
Cc1cccn2c(=O)c3cc(C(N)=S)c(=N)n(CCCOC(C)C)c3nc12	inconclusive [activator, single point]	–
COCCCNC(=O)C[C@H]1C[C@H](C(=O)N2CCOCC2)[C@@]2(CCC3CCCC3)c3[nH]c4ccc(Cl)cc4c3CCN2C1=O	inactive	–

SMILES	Potency	activity, positive = re-replication
Cc1[nH]c2ccccc2c1C(=O)COC(=O)c1c(-c2ccccc2Cl)noc1C	inconclusive [activator, single point]	–
COC(=O)c1oc2ccc(Br)cc2c1-n1cccc1	inconclusive [activator, partial curve, poor fit]	–
CC(C)c1ccccc1NC(=O)COc1ccc2c(=O)c(Oc3ccc4ccccc4c3)coc2c1	inconclusive [activator, single point]	–
CCc1ccc(OCC(=O)N/N=C/c2cc([N+](=O)[O-])ccc2N2CCOCC2)cc1	inconclusive [activator, partial curve, poor fit]	–
CC(C)(C)OC(=O)N[C@@H](Cc1ccccc1)C(=O)N1CCC(C(=O)N[C@@H](Cc2c[nH]c3ccccc23)C(=O)O)CC1	inactive	–
COc1cc(CN(C(=O)c2ccco2)C2CCS(=O)(=O)C2)cc(OC)c1OC (stereo not drawn)	inactive	–
Cc1ccc(N=C2CCCCCN2C)c(C#N)c1	inactive	–
COc1ccc(C)cc1NC(=O)CN1C(=O)c2cccc3cccc1c23	active: 14.6 µM	–
CCOc1ccc(S(=O)(=O)Nc2cc(OC)ccc2OC)cc1	inconclusive [activator, partial curve, poor fit]	–
Cn1c(NC(=O)c2cccc(Cn3cc(Cl)cn3)c2)nc2ccccc21	inactive	–
O=c1[nH]cnc(O)c1C1C=CC=CC=C1	inconclusive [activator, partial curve, poor fit]	–
NCCNC(=O)c1ncsc1-c1cccc(F)c1	inactive	–
Cc1cc(N)n2ncc(-c3cccc(Br)c3)c2n1	inactive	–
CSc1ccccc1NC(=S)Nc1ccc(S(N)(=O)=O)cc1	inactive	–
CCOc1ccc(N2C(=O)/C(=C/c3cc(OC)c(OC)c(OC)c3)N(CC(=O)OC)C2=S)cc1	active: 23.1 µM	–
CC(C)C[C@H](NC(=O)N1CC(=O)Nc2ccccc21)C(=O)N[C@H](Cc1c[nH]c2ccccc12)C(=O)O	inconclusive [activator, partial curve, poor fit]	–
Cc1ccc2nc(SCC(=O)Nc3cccc(F)c3)nc(=O)n2c1	inactive	–
O=C(COCc1cc(-c2ccc3c(c2)OCO3)on1)N1CCN(c2ccccc2)CC1	inactive	–
Cc1cc(CN(C)C)c(O)c(C2(C)CCCCC2)c1	inconclusive [activator, single point]	–
Cc1c(Cl)cccc1NC(=O)CSc1nnc(C)n1-c1ccccc1	inactive	–
Cc1nnc(NC(=O)c2ccc3c(c2)NC(=O)CS3)s1	inconclusive [activator, full curve, poor fit]	–
COc1ccc(CCNC(=O)C(=O)NCC2CCCN2S(=O)(=O)c2cc(C)ccc2C)cc1 (stereo not drawn)	inconclusive [activator, single point]	–
O=c1c2cc(F)ccc2[nH]c(=S)n1CCCN1CCOCC1	inactive	–
O=S(=O)(c1cccc(Cn2nnc(-c3ccccc3)n2)c1)N1CCOCC1	inactive	–
COc1cccc(/C=N/NC(=S)NC2CC3CC2C2C=CCC32)c1O (stereo not drawn)	inconclusive [activator, partial curve, poor fit]	–

SMILES	Potency	activity, positive = re-replication
c1cc2ccc3ccc(CN4CCOCC4)c4ccc(c1)c2c34	inconclusive [activator, partial curve, poor fit]	–
CCN(CC(=O)N1CCc2ccccc2C1)S(=O)(=O)c1ccc2ccccc2c1	inconclusive [activator, partial curve, poor fit]	–
COc1cccc(C#Cc2c(C=O)n(C)c3ccccc23)c1	inconclusive [activator, full curve, poor fit]	–
CC1CCCCN1S(=O)(=O)c1ccc2c(c1)C(C)(C)C(=O)N2C (stereo not drawn)	inactive	–
Cc1ccc(N(NC(=O)C(C)(C)O)C(=O)c2ccccc2)cc1C	inactive	–
CC(C)(C)OC(=O)C[C@@H]1C/C=C\C[C@@H](CC(=O)N(CCO)Cc2ccccc2)C(=O)N[C@H](Cc2ccccc2)COC1=O	active: 20.6 µM	–
COc1ccc(/C=C(/NC(=O)c2ccco2)C(=O)N2CCCC2=O)cc1	inactive	–
CC(C)Cc1nnc(NC(=O)CCC(=O)NCCc2ccccc2)s1	inactive	–
CC1CCCCC12NC(=O)N(CC(=O)N1CCN(S(=O)(=O)/C=C/c3ccccc3)CC1)C2=O (stereo not drawn)	inactive	–
COc1ccc(-c2n[nH]c(=S)n2-c2ccc3c(c2)OCCO3)cc1OC	inactive	–
O=c1[nH]ncc(N/N=C/c2ccccc2)c1Cl	inconclusive [activator, single point]	–
Cc1cc(NC(=O)c2cc3cccc([N+](=O)[O-])c3[nH]2)ccc1F	inactive	–
N#Cc1cnc(NCc2ccc(Cl)cc2Cl)nc1	inconclusive [activator, single point]	–
CCOC(=O)C(=NC(C)CC)NNc1ccc(Br)cc1 (stereo not drawn)	inconclusive [activator, single point]	–
O=C(CSc1nc(-c2ccncc2)nn1CC(=O)N1CCCCC1)NC1CCCC1	inconclusive [activator, full curve, poor fit]	–
Cc1cc(C)nc(NN2C(=O)/C(=C/c3ccc(O)cc3)SC2=S)n1	inactive	–
CCN(CC)S(=O)(=O)c1cc(C(=O)Nc2cc(C)[nH]n2)ccc1Cl	inactive	–
C=CCn1c(NC(=O)c2ccco2)nc2ccccc21	inactive	–
COc1ccc(-n2cnnc2SCC(=O)NC2CCCc3ccccc32)cc1 (stereo not drawn)	inconclusive [activator, single point]	–
COC(=O)c1sc(-c2ccc(Cl)cc2)cc1NC(=O)c1ccccc1C(=O)O	inconclusive [activator, partial curve, poor fit]	–
COc1ccc(C)cc1S(=O)(=O)n1nc(C)cc1C	inconclusive [activator, single point]	–
COc1ccc(NC(=O)C2CCCN2S(=O)(=O)c2cccs2)c([N+](=O)[O-])c1 (stereo not drawn)	inconclusive [activator, full curve, poor fit]	–
CCCCN(C)CCN1C(=O)C2C(C(=O)Nc3ccc(Cl)cc3)C3C=CC2(O3)C1C(=O)NC1CCCCC1 (stereo not drawn)	–	inconclusive: -43.4% [activator]
